# The whole screen tested about 310,000 compounds, of which about 14,000 (4.5%) showed an effect of 50% or more. Effects have a minus sign here. The list shows a part of the results.
# Biological target: human ether-à-go-go-related gene (hERG) potassium channel (human, UniProt Q12809)
# Experiment: primary screen, population patch clamp on CHO cells stably expressing hERG
# 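Further: peak tail current of the secondary pulse compared with the same well before compound.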
# human ether-à-go-go-related gene (hERG) potassium channel, sequence (Q12809 whole entry, looked up): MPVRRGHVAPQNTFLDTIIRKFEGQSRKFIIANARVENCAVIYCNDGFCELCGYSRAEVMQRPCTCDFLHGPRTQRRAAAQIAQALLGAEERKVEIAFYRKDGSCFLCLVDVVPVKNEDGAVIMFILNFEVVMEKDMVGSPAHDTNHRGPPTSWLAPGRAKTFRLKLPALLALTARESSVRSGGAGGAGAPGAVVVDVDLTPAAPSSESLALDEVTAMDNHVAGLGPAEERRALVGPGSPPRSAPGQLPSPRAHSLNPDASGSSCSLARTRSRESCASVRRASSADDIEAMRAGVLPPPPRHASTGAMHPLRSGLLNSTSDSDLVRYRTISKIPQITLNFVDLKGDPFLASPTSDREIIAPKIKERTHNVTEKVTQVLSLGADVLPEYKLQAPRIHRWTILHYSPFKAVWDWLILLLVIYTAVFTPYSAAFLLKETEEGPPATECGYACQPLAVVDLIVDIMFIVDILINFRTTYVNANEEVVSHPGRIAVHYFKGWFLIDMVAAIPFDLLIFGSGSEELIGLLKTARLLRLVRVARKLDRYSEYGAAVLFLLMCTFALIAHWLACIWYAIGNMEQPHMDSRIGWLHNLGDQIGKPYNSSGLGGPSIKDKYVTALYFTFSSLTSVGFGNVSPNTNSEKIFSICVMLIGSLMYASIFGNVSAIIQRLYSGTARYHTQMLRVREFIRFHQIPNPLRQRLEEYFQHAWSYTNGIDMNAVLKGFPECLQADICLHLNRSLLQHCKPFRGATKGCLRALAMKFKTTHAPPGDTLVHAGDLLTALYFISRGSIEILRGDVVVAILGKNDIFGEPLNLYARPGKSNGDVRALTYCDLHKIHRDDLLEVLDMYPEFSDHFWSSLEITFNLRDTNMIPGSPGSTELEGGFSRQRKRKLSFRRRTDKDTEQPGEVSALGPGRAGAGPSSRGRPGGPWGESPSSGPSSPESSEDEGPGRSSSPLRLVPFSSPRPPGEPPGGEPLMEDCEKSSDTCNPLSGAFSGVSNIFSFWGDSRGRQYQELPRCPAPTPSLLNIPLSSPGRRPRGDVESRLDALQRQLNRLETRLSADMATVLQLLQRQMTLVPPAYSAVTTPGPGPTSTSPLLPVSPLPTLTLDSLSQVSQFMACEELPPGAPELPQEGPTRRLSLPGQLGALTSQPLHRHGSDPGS
row,SMILES,"hERG current change (%, negative = inhibition) at 10uM [%]"
1,O=C1C(Cc2c[nH]c3ccccc23)NC(=S)N1C1CCCCC1 (centres unmarked),-8.05
2,CCOc1cccc(-c2nnc3sc(COc4ccc(Cl)cc4)nn23)c1,5.67
3,COc1cc(C(=O)NC(C)c2ccc(S(N)(=O)=O)cc2)ccc1OCC(=O)N1CCOCC1 (centres unmarked),12.1
4,CS(=O)(=O)N(CC(=O)NCc1ccccc1Cl)C1CCCCC1,1.61
5,O=C(O)/C=C/C(=O)Nc1ccc(Oc2ccc(NC(=O)/C=C/C(=O)O)cc2)cc1,-0.495
6,CC(C)n1c(N2CCN(S(=O)(=O)c3cccc([N+](=O)[O-])c3)CC2)nc2ccccc21,-71
7,COCCN(C(=O)COC(=O)CCCOc1ccccc1)c1c(N)n(Cc2ccccc2)c(=O)[nH]c1=O,-1.4
8,COc1ccc(NC(=O)c2ccc(Br)c(S(=O)(=O)N3CCOCC3)c2)cc1,1.53
9,COc1cc(C(C)=O)ccc1COc1ccc(C(=O)O)cc1OC,20.3
10,O=C(NCc1ccc2c(c1)OCO2)Oc1ccccc1,-24.4
11,Cc1cccc2cc(CN(C(=O)c3cccs3)c3ccccc3)c(=O)[nH]c12,9.62
12,CCCCCn1c(=S)[nH]c2cc(C(=O)N3CCCC3)ccc2c1=O,8.43
13,O=C1/C(=C/c2cccs2)CCC/C1=C\c1cccs1.O=S(=O)(O)O,15.3
14,O=C(NC(=S)NCc1ccccc1)c1cccc([N+](=O)[O-])c1,-31.8
15,O=C(N/N=C/c1cccs1)c1cc(C2CC2)nc2ccccc12,-10.6
16,O=C(NC1CCCCCC1)c1ccc(CS(=O)Cc2ccccc2Cl)o1 (centres unmarked),-31.1
17,OCCC1CN(Cc2cc3c(cc2Cl)OCO3)CCN1Cc1ccccc1 (centres unmarked),-45.3
18,CN(C)c1ccc(/C=C2\N=C(C(C)(C)C)OC2=O)cc1,19.9
19,O=C(OC(C(=O)Nc1cc(Cl)cc(Cl)c1)c1ccccc1)C1=COCCO1 (centres unmarked),-2.43
20,COc1ccc(-c2csc(NC(=O)CSCC(=O)Nc3cc(C)on3)n2)cc1,3.94
21,O=C(CCCNC(=O)/C(=C/c1ccc(F)cc1)NC(=O)c1ccccc1)OCc1ccccc1,-64.3
22,COc1ccc(Cl)cc1C(=O)NNC1CC(=O)N(Cc2ccc(Cl)cc2)C1=O (centres unmarked),-27.8
23,O=C(COC(=O)CCC1CCCC1)Nc1ccc(Cl)cn1,15.2
